The supplement of paper PMC10126150
Sequences with one replicate were seen in a single cluster, so their values are uncertain.

Test system: ATP
Assay: switch fluorescence ratio, 500 uM ATP over buffer (Cy3 cluster intensity, sum of 5 cycles each) (fold (ratio)); higher = stronger signal-on switching upon ATP binding; sequences stand for … in TCGTCGGCAGCGTCAGATGTGTATAAGAGACAGTTTTTTTTTTTTTTTTTTTTTTTTT…TC
Conditions: aptamer strand: ATP DNA aptamer (quencher-CACCTGGGGGAGTATTGCGGAGGAAGG + anchor), 100 nM annealed; ATP concentration: 500 uM; one replicate
Summary of the method: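 Values give the fluorescence ratio for each switch-domain sequence, averaged from per-cluster ratios of summed target-cycle to summed buffer-cycle Cy3 intensity. The Cy3-labelled switching-strand clusters sat on a modified Illumina MiSeq flow-cell, were annealed to 100 nM quencher-labelled ATP aptamer, and were imaged in selection buffer, then after 15 min with 500 uM ATP at 22 °C. Five cycles ran with NaOH stripping and re-annealing between them, and clusters outside 100-1000 RFU were excluded.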
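Also: ATP exposure 15 min at 22 °C before imaging.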

For AAATAGCGCC, the switch fluorescence ratio was 0.972.

With CTACTGGGCG the switch fluorescence ratio was 0.993.

Work on ACTGCAGCCC yielded a switch fluorescence ratio of 1.04.

AGCGTTTTGT gave a switch fluorescence ratio of 1.03.

Work on GGAGGGGAAT yielded a switch fluorescence ratio of 0.977.

TTGAGTTGGA showed a switch fluorescence ratio of 0.978.

With TCCACTTTGC the switch fluorescence ratio was 1.06.

Work on CATGGTGTCA yielded a switch fluorescence ratio of 1.01.

TGGTGAAGG gave a switch fluorescence ratio of 0.977.

Sequence CTAGCTCCAT has a switch fluorescence ratio of 0.993.

CATCTTAAGG gave a switch fluorescence ratio of 1.05.

Sequence GATACCACTG has a switch fluorescence ratio of 1.08.

Sequence AGCGCCTATC has a switch fluorescence ratio of 1.

Work on TACAAACACA yielded a switch fluorescence ratio of 1.02.

With CCTAAGGTCT the switch fluorescence ratio was 1.05.

TAGTACCGTA was tested, and the switch fluorescence ratio was 1.05.

Sequence CGGCTAATAT has a switch fluorescence ratio of 1.32.

In the case of AAGACC, the switch fluorescence ratio is reported as 1.01.

With CTGCGGTCT the switch fluorescence ratio was 0.972.

GTTGCTAAGG showed a switch fluorescence ratio of 0.973.

Work on ATTCCTCAG yielded a switch fluorescence ratio of 1.31.

TAATTAGGAC was tested, and the switch fluorescence ratio was 1.05.

Work on TACGATGTTG yielded a switch fluorescence ratio of 0.996.

Work on ATCCCCGGGC yielded a switch fluorescence ratio of 1.1.

CTCCGGAAAA showed a switch fluorescence ratio of 1.44.

CGATGTTGCG was tested, and the switch fluorescence ratio was 0.977.

Work on CGTTGAAGGG yielded a switch fluorescence ratio of 1.03.

With AAATGGTACC the switch fluorescence ratio was 1.04.

Work on GGTTTTGGCA yielded a switch fluorescence ratio of 1.02.

With GCAGGGTAGA the switch fluorescence ratio was 1.03.

Sequence CATAGAGGGC has a switch fluorescence ratio of 0.948.

For CCCCTGCGTT, the switch fluorescence ratio was 1.25.

Work on TTTACTAAAA yielded a switch fluorescence ratio of 1.06.

With ACAGTTTTGT the switch fluorescence ratio was 1.01.

GCAACTCAGT was tested, and the switch fluorescence ratio was 1.

Work on ATAAAGCACA yielded a switch fluorescence ratio of 1.14.

For GCTGCACCTG, the switch fluorescence ratio was 0.998.

TTCATTGCAG showed a switch fluorescence ratio of 1.05.

Work on TATGTGCTT yielded a switch fluorescence ratio of 1.01.

TGCATGACGA was tested, and the switch fluorescence ratio was 1.09.

For GCTATGCCTT, the switch fluorescence ratio was 0.965.

Sequence ACTAGATTTA has a switch fluorescence ratio of 0.978.

Work on AGAGGACGGG yielded a switch fluorescence ratio of 0.997.

Work on TATTCACGTC yielded a switch fluorescence ratio of 0.98.

TTGGCAACGC was tested, and the switch fluorescence ratio was 0.986.

GTTCTGGCGT was tested, and the switch fluorescence ratio was 1.01.

Sequence ACAGTGAGTT has a switch fluorescence ratio of 0.994.

Sequence TGAAACTGAG has a switch fluorescence ratio of 1.07.

Work on ATCACTGTCT yielded a switch fluorescence ratio of 0.973.

GCTACTGATG showed a switch fluorescence ratio of 0.994.

GGGTCATTCG gave a switch fluorescence ratio of 1.01.

For CTGTTATAGT, the switch fluorescence ratio was 0.983.

AGCATATTGT was tested, and the switch fluorescence ratio was 0.973.

In the case of GTATGCACA, the switch fluorescence ratio is reported as 1.02.

TAAAAAAATT gave a switch fluorescence ratio of 1.02.

CGAGTACATG gave a switch fluorescence ratio of 0.939.

Sequence CTGCTACGAT has a switch fluorescence ratio of 1.16.

In the case of GGACAGGAGC, the switch fluorescence ratio is reported as 0.971.

With ACGCAGGGCT the switch fluorescence ratio was 1.3.

With CGGGGGCACT the switch fluorescence ratio was 1.04.

GACTTTCACC was tested, and the switch fluorescence ratio was 1.06.

With TCGATTGGAA the switch fluorescence ratio was 1.02.

TATGTCCAT was tested, and the switch fluorescence ratio was 0.985.

For CATATATCTC, the switch fluorescence ratio was 1.01.

For TTGTACGCTG, the switch fluorescence ratio was 1.01.

CCGTTGGTT showed a switch fluorescence ratio of 1.

TAGGTGGAGG gave a switch fluorescence ratio of 0.977.

With TATAAGTGCG the switch fluorescence ratio was 1.

Work on GGAGGAGCGT yielded a switch fluorescence ratio of 1.

With ACTAAGGAAT the switch fluorescence ratio was 1.1.

Sequence CTCCTGAAG has a switch fluorescence ratio of 1.02.

CGCTCTGGCT showed a switch fluorescence ratio of 1.06.

CTGTTAGATG was tested, and the switch fluorescence ratio was 0.971.

For CTGTAGTGTC, the switch fluorescence ratio was 1.28.

CCTGTATCCA showed a switch fluorescence ratio of 1.09.

For CGCCATTTCG, the switch fluorescence ratio was 1.04.

AATGAGGGT was tested, and the switch fluorescence ratio was 0.946.

ATAACAACCA showed a switch fluorescence ratio of 1.07.

In the case of GCTATTCAGC, the switch fluorescence ratio is reported as 1.02.

Work on GCCATTGAGA yielded a switch fluorescence ratio of 1.02.

GGAGTGGGGA gave a switch fluorescence ratio of 1.03.

Sequence GCTATTTGC has a switch fluorescence ratio of 1.01.

Sequence ATGAGAATTC has a switch fluorescence ratio of 1.12.

AGGGCCGTGG showed a switch fluorescence ratio of 1.05.

With TGATTTGCAT the switch fluorescence ratio was 1.02.

In the case of CGTTCCGCTA, the switch fluorescence ratio is reported as 5.37.

TCACCCCACT showed a switch fluorescence ratio of 1.36.

In the case of ACAGGCTAT, the switch fluorescence ratio is reported as 0.998.

In the case of GGTGGTTACC, the switch fluorescence ratio is reported as 1.

In the case of TTCGGACTGA, the switch fluorescence ratio is reported as 1.1.

For AACCTGATGG, the switch fluorescence ratio was 1.04.

GGAATCTAAA gave a switch fluorescence ratio of 0.98.

TCGTTGTAAG gave a switch fluorescence ratio of 1.03.

With GGGGCCTAGT the switch fluorescence ratio was 0.999.

In the case of TATACGTAAG, the switch fluorescence ratio is reported as 1.03.

With CTTACGAACT the switch fluorescence ratio was 1.29.

In the case of GGGCACAGGG, the switch fluorescence ratio is reported as 1.01.

For CTTATGCACT, the switch fluorescence ratio was 1.02.

Work on TCGTAGGCGT yielded a switch fluorescence ratio of 1.03.

CGGAATCTTT gave a switch fluorescence ratio of 1.06.

With AGGCGGCGGG the switch fluorescence ratio was 1.

With GGACTTTAGT the switch fluorescence ratio was 0.997.

For GGTTTACGCA, the switch fluorescence ratio was 1.04.

AACGTTTTGT showed a switch fluorescence ratio of 0.988.

Sequence TAGCGTGCTG has a switch fluorescence ratio of 0.992.

GGGATGTAGA showed a switch fluorescence ratio of 0.996.

Sequence TCCCGTAAGA has a switch fluorescence ratio of 1.07.

In the case of AATATTGAGT, the switch fluorescence ratio is reported as 0.998.

With TGTATCGATG the switch fluorescence ratio was 0.991.

CGGTGGTTCA was tested, and the switch fluorescence ratio was 0.982.

Work on CCTAACATCA yielded a switch fluorescence ratio of 1.05.

For CCTTGCTTCT, the switch fluorescence ratio was 1.11.

TTGCACATGG gave a switch fluorescence ratio of 1.75.

Work on TTCGTCGGGT yielded a switch fluorescence ratio of 0.975.

Sequence CCGAAGGTTC has a switch fluorescence ratio of 1.3.

GTTGCCAGGT was tested, and the switch fluorescence ratio was 1.03.

Sequence GCCCCACCAA has a switch fluorescence ratio of 1.02.

For ACGTCATGTA, the switch fluorescence ratio was 1.06.

For ACAGGGATTG, the switch fluorescence ratio was 1.

CGACAAGGTA gave a switch fluorescence ratio of 1.17.

Work on GTACTTATGG yielded a switch fluorescence ratio of 1.01.

Work on CGTCTCTCGC yielded a switch fluorescence ratio of 1.04.

CGAAAACACG gave a switch fluorescence ratio of 1.

Work on TGAGCTCAAG yielded a switch fluorescence ratio of 0.994.

Work on TGAGGCTTGC yielded a switch fluorescence ratio of 0.933.

Work on GCCGGTAGTG yielded a switch fluorescence ratio of 0.997.

Sequence TGAGAATAGA has a switch fluorescence ratio of 1.03.

Work on CAACAGTACA yielded a switch fluorescence ratio of 1.21.

CGTCCGGGGG gave a switch fluorescence ratio of 1.13.

Sequence GATAGGGGTC has a switch fluorescence ratio of 1.02.

CTAATCAGTG was tested, and the switch fluorescence ratio was 1.04.

GTGGCGCGCG was tested, and the switch fluorescence ratio was 0.979.

In the case of GCGGATCGCA, the switch fluorescence ratio is reported as 1.01.

TGTTATTAAT was tested, and the switch fluorescence ratio was 0.987.

CGTTGGCACT gave a switch fluorescence ratio of 1.03.

Sequence CACGA has a switch fluorescence ratio of 1.03.

Sequence CGGCGGAGGG has a switch fluorescence ratio of 1.02.

GGGTGTCAGG showed a switch fluorescence ratio of 1.01.

In the case of CCTGTGCGTT, the switch fluorescence ratio is reported as 1.65.

GTATTTATTT was tested, and the switch fluorescence ratio was 0.98.

Work on ATTCGCACT yielded a switch fluorescence ratio of 1.09.

With ATGATGCCG the switch fluorescence ratio was 0.993.

GGTTGAGAGT gave a switch fluorescence ratio of 1.04.

With AGTAACGACG the switch fluorescence ratio was 0.938.

CATGGGAGGA showed a switch fluorescence ratio of 0.994.

Sequence GCCGCTGGCG has a switch fluorescence ratio of 1.01.

GTCAAAGGGG gave a switch fluorescence ratio of 0.956.

For TCTGGTCG, the switch fluorescence ratio was 1.01.

With CCTTCGATTA the switch fluorescence ratio was 2.77.

Sequence GTTTTAAGCA has a switch fluorescence ratio of 0.998.

For TAGGCTGTGT, the switch fluorescence ratio was 0.971.

ACCGGCGATT gave a switch fluorescence ratio of 1.04.

For TCGTGCTCCT, the switch fluorescence ratio was 1.01.

With GGTTTATAAC the switch fluorescence ratio was 1.09.

In the case of GATACCACGC, the switch fluorescence ratio is reported as 1.02.

In the case of TACTCCATTA, the switch fluorescence ratio is reported as 1.06.

CCAAAAATAA showed a switch fluorescence ratio of 1.08.

For TTACGCCGCG, the switch fluorescence ratio was 1.31.
